Data published in paper PMC4336329 (PLoS ONE, 2015).
Among all 310,000 compounds or so, about 2,200 (0.71%) showed an effect of 50% or more. Effects have a minus sign here. The list shows a part of the results.

Biological target: human ether-à-go-go-related gene (hERG) potassium channel (human, UniProt Q12809)
Assay: primary screen, population patch clamp on CHO cells stably expressing hERG

human ether-à-go-go-related gene (hERG) potassium channel, sequence (Q12809 whole entry, looked up): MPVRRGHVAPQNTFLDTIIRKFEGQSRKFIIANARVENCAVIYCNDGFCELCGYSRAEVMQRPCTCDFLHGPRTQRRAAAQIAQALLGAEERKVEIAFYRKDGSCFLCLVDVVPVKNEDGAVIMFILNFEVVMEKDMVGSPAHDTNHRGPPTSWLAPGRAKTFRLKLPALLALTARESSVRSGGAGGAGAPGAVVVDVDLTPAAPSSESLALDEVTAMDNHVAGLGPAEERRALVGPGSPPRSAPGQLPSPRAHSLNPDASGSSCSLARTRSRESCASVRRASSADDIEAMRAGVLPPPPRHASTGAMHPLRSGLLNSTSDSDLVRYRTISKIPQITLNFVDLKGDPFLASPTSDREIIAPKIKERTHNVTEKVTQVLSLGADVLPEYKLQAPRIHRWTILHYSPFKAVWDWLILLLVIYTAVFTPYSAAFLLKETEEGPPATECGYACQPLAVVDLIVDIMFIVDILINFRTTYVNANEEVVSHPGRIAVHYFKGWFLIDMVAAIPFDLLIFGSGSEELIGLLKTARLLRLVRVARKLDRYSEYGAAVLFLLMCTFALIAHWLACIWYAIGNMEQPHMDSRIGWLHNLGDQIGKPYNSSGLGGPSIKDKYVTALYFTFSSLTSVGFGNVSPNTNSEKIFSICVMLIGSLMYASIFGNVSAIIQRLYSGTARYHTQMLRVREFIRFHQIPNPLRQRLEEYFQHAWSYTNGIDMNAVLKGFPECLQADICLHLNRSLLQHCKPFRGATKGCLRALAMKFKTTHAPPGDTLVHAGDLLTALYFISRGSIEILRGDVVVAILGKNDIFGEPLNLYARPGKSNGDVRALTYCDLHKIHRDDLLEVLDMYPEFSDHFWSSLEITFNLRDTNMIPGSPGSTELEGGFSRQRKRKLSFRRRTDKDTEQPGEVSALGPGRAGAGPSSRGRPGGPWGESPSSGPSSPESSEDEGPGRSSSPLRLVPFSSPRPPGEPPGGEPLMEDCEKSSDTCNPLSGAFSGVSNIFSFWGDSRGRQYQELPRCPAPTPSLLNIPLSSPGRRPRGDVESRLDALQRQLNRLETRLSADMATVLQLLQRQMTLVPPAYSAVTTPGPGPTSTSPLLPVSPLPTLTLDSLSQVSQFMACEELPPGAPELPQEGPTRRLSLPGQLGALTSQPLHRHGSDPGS

SMILES | hERG current change (%, negative = inhibition) at 1uM [%]
Cc1ccc(S(=O)(=O)N2CCN(C(=O)c3sccc3-c3ccccc3)CC2)cc1 | -7.9
CN(C)c1ccc(C2CNC(c3ccc(Cl)c([N+](=O)[O-])c3)c3[nH]c4ccccc4c32)cc1.Cl (centres unmarked) | 1.29
Cc1c(C)n2c(SCC(=O)N3CCCC3)nnc2[nH]c1=O | 7.9
NC(=O)C1(C(N)=O)OC1c1ccc(Cl)c(Cl)c1 (centres unmarked) | 9.83
CCc1ccc(C2=NN(CCC(=O)N3CCC4(CC3)OCCO4)C(=O)CC2)cc1 | -8.64
N/C(=N\OC(=O)C1CCCCC1)c1ccc(Cl)cc1 | 16
O=C(Nc1nccs1)C1CCCN1S(=O)(=O)c1ccc(F)cc1 (centres unmarked) | 3.86
O=C(CCOc1ccccc1)NCC(c1ccco1)N1CCCCC1 (centres unmarked) | 7.67
CN(Cc1ccc(Br)cc1)CC(O)COc1cccc(Br)c1 (centres unmarked) | 9.41
N#Cc1nc(-c2ccccc2F)oc1N1CCN(C(=O)c2ccco2)CC1 | -6.17
NC(=O)c1sc2nc(-c3ccccc3)ccc2c1N | 16
CCOC(=O)N1CCN(S(=O)(=O)c2ccc(Cl)cc2)CC1 | 9.52
O=C(CSc1nc(C2CC2)nc2ccccc12)Nc1ccccc1N1CCOCC1 | 15.9
O=C(O)C1CCCN1C(=O)Oc1ccccc1 (centres unmarked) | -0.952
N[C@@H]1CONC1=O | 18.7
CCc1cc2c(SCC(=O)O)ncnc2s1 | 5.49
O=C(CSCc1nc2ccccc2[nH]1)Nc1ccccc1 | -1.59
O=C(N1CCOCC1)C12CC3CC(C1)CC(C(=O)N1CCOCC1)(C3)C2 | 11.7
C=CCC(=O)NC1CC(C)(C)Cc2c1cnn2-c1ccc(C)cc1 (centres unmarked) | -20.8
CCCn1c(NC(=O)C2CCN(C(=O)c3ccccc3C)CC2)nc2ccccc21 | 8.78
OCCNc1c2c(nc3ccccc13)CCCC2 | -15.9
O=C(Nc1cccc(NC(=O)c2ccc([N+](=O)[O-])o2)c1)c1ccco1 | 14.2
CCOC(=O)c1nn(-c2ccc(C)c(Cl)c2)c(=O)c(C#N)c1C | 9.21
COc1ccccc1N1CCN(CCCCOc2ccc(F)cc2)CC1.Cl | -71.5
Cn1c(=O)oc2cc(C(=O)c3ccccc3)ccc21 | 0.415
Cc1ccc(S(=O)(=O)Nc2nc3ccccc3nc2NCC2CCCO2)c(C)c1 (centres unmarked) | 13.3
